This is one part of the list. Single values are uncertain, as repeats are few or missing.
The compounds below were run on Candida albicans DPL-15 (assay: growth (OD600) after compound treatment (apparently relative to screen median) (relative growth (fraction; screen median 1.02)); DPL-15 is a caspofungin-resistant clinical isolate; higher = more fungal growth (less antifungal activity)). Settings: 25 µM; RPMI 1640; 48 h; 30 °C.

| SMILES | growth |
| --- | --- |
| COc1cccc(Oc2ccc(C(F)(F)F)cc2C(=O)O)c1OCc1ccccc1 | 1.08 |
| COC(=O)C/C=C/[C@H](C)[C@H](NC(=O)C(F)(F)F)c1ccc(Br)cc1 | 0.964 |
| C=CCN1C(=O)c2[nH]nc(COC)c2C1c1ccccc1 (centres undefined) | 0.838 |
| CCOC(=O)[C@@H]1CCCN(CCc2ccccc2C)C1 | 0.862 |
| C=CCOC(=O)C#CCCCNC(=O)OC(C)(C)C | 0.97 |
| COc1ccccc1C#C[C@@H]1C=C[C@H](OC(C)=O)[C@@H](COC(C)=O)O1 | 0.893 |
| CCc1cc2c(nc1CC)CCCN2S(=O)(=O)c1ccc(C(F)(F)F)cc1 | 0.898 |
| COc1cc(OC)c2c(=O)c3c(CC=C(C)C)cc(OC)c(O)c3oc2c1 | 1.08 |
| COC(=O)C1=C(C)N(Cc2ccccc2)C(=S)NC1c1cccc(Cl)c1 (centres undefined) | 0.876 |
| COC(=O)C1=C(C)N(Cc2ccc(C(F)(F)F)cc2)C(NCc2ccncc2)=NC1c1ccccc1 (centres undefined) | 0.882 |
| COC(=O)C1=C(C)N(Cc2ccc(Cl)cc2)C(=S)NC1c1ccc(F)cc1 (centres undefined) | 0.98 |
| COc1cc(OC)c2c(c1)OC(Cc1ccc3ccccc3c1)(c1ccc(Br)cc1)C2=O (centres undefined) | 0.9 |
| COC[C@@H](O)[C@H]1OCc2oc3ccccc3c2[C@H]1/C=C/c1ccccc1 | 0.835 |
| COc1cc([C@@H]2[C@@H](C(=O)Nc3ccccc3)[C@H](C(=O)Nc3ccccc3)[C@H]2c2cc(OC)c(OC)c(OC)c2)cc(OC)c1OC | 0.994 |
| CO[C@@H]1[C@H](O)CC[C@]2(O)CN(c3ccc4[nH]ccc4c3)[C@](C)([C@H](O)CC=C(C)C)[C@@H]12 | 0.841 |
| COc1ccc(N2C(=O)c3[nH]nc(CC(C)C)c3C2c2cccc(Cl)c2)cc1 (centres undefined) | 0.972 |
| CC(=O)C1=C(C)N(CC#C[Si](C)(C)C)C(=O)N(C(C)=O)C1c1ccccc1 (centres undefined) | 0.951 |
| CC(C)CCCC(C)CCOS(=O)(=O)NC(C)(C)C (centres undefined) | 1.01 |
| COC(=O)Cc1nnn2c1[C@H](C)[C@H](c1ccccc1Br)OC[C@H](C)C2 | 1.13 |
| CC(=O)OC[C@H]1O[C@H](C#CCC2CCCC2)C=C[C@@H]1OC(C)=O | 0.997 |
| CC1=NCCN(C)C2=C1C(c1ccccc1)NC2=O (centres undefined) | 1.08 |

| SMILES | growth |
| --- | --- |
| CC(=O)C1=C(C)N(Cc2ccc(Cl)cc2)C(=S)NC1c1ccc(Br)cc1 (centres undefined) | 0.932 |
| COC(=O)c1ccc(N2C(=O)c3[nH]nc(CC(C)C)c3C2C2CCCCC2)cc1 (centres undefined) | 1.12 |
| COc1ccc(Cn2ncc(C(C)C)c2Nc2cc(O)cc(O)c2C(=O)N2Cc3ccccc3C2)cc1 | 1.09 |
| COC(=O)C1=C(C)N(C)C(NCc2ccc(C(F)(F)F)cc2)=NC1c1cccc(F)c1 (centres undefined) | 1.06 |
| Nc1c(-c2ccc(F)cc2)cnc2c(-c3ccccn3)cnn12 | 0.879 |
| CCCCCOS(=O)(=O)N(CC)CC | 1.18 |
| CCCCCN(C(=O)OC(C)(C)C)S(=O)(=O)NCC(F)(F)F | 1.03 |
| COc1ccc(C2=CC(=O)C(c3ccc(Cl)cc3)C2)cc1 (centres undefined) | 1.06 |
| CC(C)CC1=NCCN(C)C2=C1C(c1ccc3c(c1)OCO3)N(Cc1ccccc1)C2=O (centres undefined) | 0.938 |
| C=CC[C@@H](O)COc1cc2c(cc1C1(c3cc4c(cc3OC[C@H](O)CC=C)OCO4)C(=O)Nc3c(F)cccc31)OCO2 | 0.827 |
| C=CCC1=C2OC(C)(C)[C@@H](CC=C)C[C@]23C[C@H](CC=C)C(C)(C)OC3=C(C(=O)c2ccccc2)C1=O | 1.07 |
| COCOc1cc(OC)c(OC)c2cc3oc(C)cc(=O)c3c(O)c12 | 0.951 |
| COC(=O)c1ccc(C(C)(C)C)c(O)c1 | 1.05 |
| COC(=O)C1=C(C)N(Cc2cccc(C(F)(F)F)c2)C(NCC2CC2)=NC1c1ccc(Cl)cc1 (centres undefined) | 0.87 |
| C=CCN1C(=O)C2=C(C(C(C)C)=NCC(C)(C)N2)C1c1ccc(F)cc1 (centres undefined) | 1.04 |
| COc1ccccc1N1C(=O)c2[nH]nc(CC(C)C)c2C1c1ccccc1Cl (centres undefined) | 0.939 |
| C[C@H]1Cc2c(COc3ccccc3)nc3c(c2CO1)CN(C(=O)C1CCCCC1)CC3 | 0.885 |
| N#CCCn1cnc2c(Cl)ncnc21 | 1.1 |
| C[C@H](NS(=O)(=O)OCCCc1ccccc1)c1ccccc1 | 0.989 |
| COc1ccc(Cn2ccc3nc4cc(O)cc(O)c4c(=O)n32)cc1 | 1.27 |
| Cc1cc2c(nc1C)CCCN2S(=O)(=O)c1cccs1 | 0.978 |

| SMILES | growth |
| --- | --- |
| CC#CCOC[C@@H](NC(=O)CC1(CNC(=O)c2cccc(/C=N/NS(=O)(=O)c3ccc(C)cc3)c2)CCCCC1)c1ccccc1 | 0.997 |
| C[C@H]1Cc2c(-c3ccccc3)nc3c(c2CO1)CN(C(=O)c1cccnc1)CC3 | 1.34 |
| O=C(O)c1cc(=O)c2c(O)cccc2o1 | 1.1 |
| COc1ccc(OC)c2c(=O)oc(C)cc12 | 1.12 |
| CC(=O)C1=C(C)N(Cc2ccccc2)C(=S)NC1c1ccccc1 (centres undefined) | 0.977 |
| CC#CCN1C(=O)NC(c2ccccc2)C(C(C)=O)=C1C (centres undefined) | 1.02 |
| CC(=O)OC[C@@H]1OC(OC(C)=O)[C@@H](OC(C)=O)[C@H](OC(C)=O)[C@H]1OC(C)=O (some centres undefined) | 1.21 |
| COc1ccc(Cn2ncc(Cc3ccccc3)c2N)cc1 | 0.246 |
| C#CCC(C)(C)CNC(=O)CC1(CNC(=O)c2cccc(CO)n2)CCCCC1 | 1.13 |
| Cc1nn(-c2ccccc2)c2c1C(c1ccc3c(c1)OCO3)NC2=O (centres undefined) | 0.997 |
| C=CC[C@@H](O)COc1cc2c(cc1C1(c3cc4c(cc3OC[C@H](O)CC=C)OCO4)C(=O)Nc3cc(F)ccc31)OCO2 | 1.01 |
| C=CCNc1cc(OC)cc(OC)c1C(=O)OCC(=O)c1ccc(OC)cc1 | 1.01 |
| Clc1cc2ccccc2c(CCCc2ccccc2)n1 | 1.11 |
| COC(=O)C1=C(C)N(Cc2ccc(Cl)cc2)C(=S)NC1c1cccc(F)c1 (centres undefined) | 0.871 |
| CC1=C[C@H]2c3c(c(O)c(O)c4[nH]c5ccccc5c(=O)c34)[C@H](c3cc(O)c(O)c4[nH]c5ccccc5c(=O)c34)[C@H]2C(C)(C)C1 | 1.03 |
| COC(=O)Cc1nnn2c1[C@H](C)[C@H](c1ccc(C)cc1)OCCC2 | 1.13 |
| COC[C@@H](Cc1ccc(OC)c(OC)c1)[C@@H](COC)Cc1ccc(OC)c(OC)c1 | 1.13 |
| Cc1ccc(C2c3c(CC(C)C)n[nH]c3C(=O)N2c2ccccc2)cc1 (centres undefined) | 0.962 |
| COc1cc([C@H]2c3c(OC)c(O)c4oc5cccc(F)c5c(=O)c4c3[C@@H]3C=C(C)CC(C)(C)[C@H]23)c2c(=O)c3c(F)cccc3oc2c1O | 1.05 |
| CC(C)CN1CCc2nc(-c3ccccc3)c(-c3ccccc3)cc2C1 | 0.733 |
| CC(C)C1=NCCN(C)C2=C1C(c1cccc(C(F)(F)F)c1)N(c1ccccc1)C2=O (centres undefined) | 0.964 |

| SMILES | growth |
| --- | --- |
| COc1cc(F)ccc1C1c2c(CC(C)C)n[nH]c2C(=O)N1c1ccc(N(C)C)cc1 (centres undefined) | 0.909 |
| C=CCN1C(=O)C2=C(C(c3ccccc3)=NCCN2)C1c1ccc(Br)cc1 (centres undefined) | 0.902 |
| CC(=O)OC[C@H]1O[C@H](C#Cc2ccc(F)cc2)C=C[C@@H]1OC(C)=O | 1.02 |
| COCO[C@H]1CCC(=O)C(C(=O)OC)=C1Sc1ccc(Br)cc1 | 1.09 |
| COc1cc(OC)c2c(=O)c3cccc(OCC=C(C)C)c3oc2c1 | 0.86 |
| COC(=O)N[C@@H](c1cccc(F)c1)C(C(C)=O)C(=O)OC (some centres undefined) | 0.982 |
| CCOC(=O)C1C=CC(OC)=CC=C1C (centres undefined) | 1.08 |
| C=CCN1C(=O)C2=C(C(CC(C)C)=NCC(C)(C)N2)C1c1ccc(C)cc1 (centres undefined) | 1.55 |
| Cc1cc2c(c(=O)o1)[C@@]1(C(=O)N(C)c3ccccc31)C1=C(CC(C)(C)OC1=O)O2 | 0.961 |
| C=CCN1C(=O)C2=C(C(CC(C)C)=NCC(C)(C)N2)C1c1ccc(Br)cc1 (centres undefined) | 1.05 |
| COc1ccc(N2C(=O)C3=C(C(c4ccccc4)=NCCN3C)C2c2ccccc2)cc1 (centres undefined) | 1.01 |
| c1ccc(CCCc2cccc(-c3ccccc3)n2)cc1 | 1.08 |
| O=S(=O)(c1cccs1)N1CCCc2nc(-c3ccccc3)ccc21 | 0.903 |
| CC(=O)NCC1CNC(=O)CC2(CCCCC2)CNC(=O)c2cccc(c2)-c2cc(n[nH]2)CO1 (centres undefined) | 0.879 |
| CCOC(=O)c1cc2nc(/N=C/N(C)C)nc(O)c2nc1C(=O)OCC | 1.12 |
| Cc1ccc(/C=C/C(=O)/C=C(O)/C=C/c2ccc(C)cc2)cc1 | 0.935 |
| CC(=O)OC[C@H]1O[C@H](C#Cc2cccc(Cl)c2)C=C[C@H]1OC(C)=O | 0.988 |
| COC(=O)c1cc2c(c3c4ccccc4n(S(=O)(=O)c4cccc(C)c4)c13)C(=O)N(Cc1ccc(C)cc1)C2 | 0.865 |
| CC(C)(NS(=O)(=O)OCC(F)(F)F)c1ccccn1 | 1.1 |
| CCCc1cc2c(O)ccc(O)c2c(=O)o1 | 1.08 |
| C[C@H]1C[C@H]2CC(=O)N[C@@H](Cc3ccccc3)C(=O)N2[C@H]1c1cccc(Br)c1 | 1.08 |

— the supplement of paper PMC10986608
